From PubChem BioAssay AID485294 (National Center for Advancing Translational Sciences (NCATS), 2010)
Among all 370,000 compounds or so, about 150 (0.041%) were called active. The shares of active, inactive and inconclusive entries below differ from those in the screen. Calls come from the whole dose curve; as a rule, active = well fitted inhibition curve with a large enough effect; inconclusive = small, poorly fitted or top-dose-only effect; inactive = flat fitted curve, though single readings scatter. Potencies of inconclusive entries are left out as doubtful fits.
Note: nearly all actives have a fitted effect of over 25% in size.
Potency is the fitted concentration of half-maximal effect; tags give direction and shape of the fitted curve.
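Throughout, for activity change, negative = inhibition: 0% = no-compound wells and -100% = no-enzyme wells.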

These compounds were tested against Beta-lactamase (Escherichia coli (strain K12)) (UniProt P00811) (assay: qHTS Inhibitors of AmpC Beta-Lactamase (assay with detergent)). Conditions: AmpC hydrolysis of nitrocefin, absorbance 480 nm, 0.01% Triton; activity change, negative = inhibition: at 114 µM (top of the series).
UniProt P00811, sequence (P00811 whole entry, looked up): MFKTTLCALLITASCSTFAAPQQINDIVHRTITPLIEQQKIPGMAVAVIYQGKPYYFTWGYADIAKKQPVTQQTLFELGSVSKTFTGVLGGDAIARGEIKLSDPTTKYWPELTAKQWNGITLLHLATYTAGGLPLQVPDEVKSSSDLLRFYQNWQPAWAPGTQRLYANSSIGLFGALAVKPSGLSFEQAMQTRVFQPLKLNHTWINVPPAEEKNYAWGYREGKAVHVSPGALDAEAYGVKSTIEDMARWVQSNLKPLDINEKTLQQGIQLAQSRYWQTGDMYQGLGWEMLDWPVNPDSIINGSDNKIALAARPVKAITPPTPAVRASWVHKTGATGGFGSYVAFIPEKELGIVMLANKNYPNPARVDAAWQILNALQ
Procedure, shortened: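 AmpC (5.3 nM in the dispensed reagent) in 20 mM phosphate pH 7.0 with 0.01% (detergent screen) or 0.0001% Triton X-100 was preincubated with compounds for 15 min at room temperature. Nitrocefin was then added from an 800 uM solution, and hydrolysis was followed at 480 nm.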
For `Cc1cccc(NC2=NC(=S)N(c3ccc(C(=O)O)cc3)C23CCCCC3)c1`, the Potency was inconclusive [inhibitor, full curve, poor fit]. For `CC(=O)Nc1ccc(S(=O)(=O)N2CCN(C(=O)c3ncoc3-c3ccccc3)CC2)cc1`, the “activity change, negative = inhibition” value was inactive: -9.72%. For `O=C(COC(=O)c1ccc(N2CCCC2=O)cc1)c1ccc(OC(F)F)cc1`, the Potency was inconclusive [inhibitor, full curve, poor fit]. For `COc1ccc(-c2nnnn2C(C)C)cc1`, the “activity change, negative = inhibition” value was inactive: -2.02%. With `CCSc1ccc([C@@H]2[C@@H]3C(=O)N(CC)C(=O)[C@@H]3[C@]3(C(=O)OC)CCCN23)cc1` the Potency was inconclusive [inhibitor, partial curve]. `Cc1c(NC(=O)CSc2nc3ccccc3c(=O)n2C(C)C)c(=O)n(-c2ccccc2)n1C` was tested, and the “activity change, negative = inhibition” value was inactive: -3.96%. In the case of `CCOc1ccc(S(=O)(=O)N(C)CCO)cc1-c1nc2c(C(C)(C)C)nn(C)c2c(=O)[nH]1`, the “activity change, negative = inhibition” value is reported as inactive: -13.4%. In the case of `N#CCCN(C(=O)COC(=O)c1ccc(S(=O)(=O)N2CCCCCC2)cc1)c1ccccc1`, the Potency is reported as inconclusive [inhibitor, partial curve]. In the case of `CC1=C(C/C=C(\C)CCCC(C)CCCC(C)CCCC(C)C)C(=O)c2ccccc2C1=O` (stereo unspecified), the Potency is reported as inconclusive [inhibitor, full curve, poor fit]. In the case of `O=C(COC(=O)Cc1ccc(S(=O)(=O)N2CCCCC2)s1)Nc1ccc2c(c1)OCO2`, the Potency is reported as inconclusive [inhibitor, full curve, poor fit]. For `C=CCOc1c(CNc2ccc(S(N)(=O)=O)cc2)cccc1OC`, the Potency was inconclusive [inhibitor, single point]. In the case of `Cn1ccnc1SCCNC(=O)CCc1nnc(CCCCc2ccccc2)o1`, the “activity change, negative = inhibition” value is reported as inactive: 9.06%. For `C/C=C(/C)C(=O)OC1c2c(ccc3ccc(=O)oc23)OC(C)(C)C1OC(=O)/C(C)=C\C` (stereo unspecified), the “activity change, negative = inhibition” value was inactive: 14.4%. `Cc1ccccc1S(=O)Cc1ccc(C(=O)N2CCN(c3cccc(C)c3C)CC2)o1` (stereo unspecified) was tested, and the “activity change, negative = inhibition” value was inactive: -7.46%. With `O=C(N/N=C/c1c(O)ccc2ccccc12)c1[nH]ncc1Br` the “activity change, negative = inhibition” value was inactive: -1.61%. With `O=C1CC(c2ccco2)CC(O)=C1C=NCC1NCCc2ccccc21` (stereo unspecified) the Potency was inconclusive [inhibitor, partial curve, poor fit]. With `O=C(CSc1nc2ccccc2o1)Nc1nc(-c2ccccc2)cs1` the “activity change, negative = inhibition” value was inactive: -6.16%. `S=C(Nc1ccc(Cl)cc1)c1nc2ccccc2s1` was tested, and the “activity change, negative = inhibition” value was inactive: -4.18%. For `CCOC(=O)CSc1nnc(CSc2nc3ccccc3s2)n1C`, the “activity change, negative = inhibition” value was inactive: -0.767%. In the case of `COC(=O)c1c(C)oc2c1cc(NS(=O)(=O)c1cccs1)c1ccccc12`, the “activity change, negative = inhibition” value is reported as inactive: -7.06%. In the case of `COc1ccc(C(CNC(=O)c2cccc(S(=O)(=O)Nc3cccc(C)c3)c2)N2CCOCC2)cc1` (stereo unspecified), the Potency is reported as inconclusive [inhibitor, partial curve]. `COc1ccc(N2CCN(C3CC(=O)N(Cc4ccccc4)C3=O)CC2)cc1` (stereo unspecified) was tested, and the Potency was inconclusive [inhibitor, full curve, poor fit]. For `Cc1cccc(C)c1Nc1nnc(SCC(=O)NCc2ccco2)s1`, the Potency was inconclusive [inhibitor, partial curve, poor fit]. With `Cc1ccc(NC(=O)CNC(=O)Cc2cccc3ccccc23)c(O)c1` the Potency was inconclusive [inhibitor, full curve, poor fit]. `CCCS(=O)(=O)N1CCC(C(=O)Oc2ccc(OC)cc2)CC1` was tested, and the Potency was inconclusive [inhibitor, full curve, poor fit]. For `CC(=O)c1ccc(OCCCC(=O)Nc2cc(Cl)ccc2-n2cncn2)cc1`, the Potency was inconclusive [inhibitor, full curve]. With `O=C(Oc1ccc2c3c(c(=O)oc2c1)CCCC3)c1cccs1` the Potency was inconclusive [inhibitor, partial curve, poor fit]. `N=c1c(C(=O)NCCc2ccccc2)cc2c(=O)n3ccccc3nc2n1CCCN1CCOCC1` was tested, and the “activity change, negative = inhibition” value was inactive: -6.35%. `CCC(=O)/C=C1/Sc2ccccc2N1CC` was tested, and the Potency was inconclusive [inhibitor, partial curve]. `O=C(Nc1ccccc1)c1ccc(OC(=O)c2ccccc2)cc1` was tested, and the Potency was inconclusive [inhibitor, full curve, poor fit]. For `CC(=O)Nc1sc(C)c(C)c1C(=O)OCC(=O)NC(C)c1ccccc1` (stereo unspecified), the “activity change, negative = inhibition” value was inactive: 0%. `CCS(=O)(=O)c1ccc(O)c(NC(=O)COc2ccc(C)cc2)c1` was tested, and the Potency was inconclusive [inhibitor, full curve]. With `COc1ccc(-n2ncc3c(NC(C)(C)CO)ncnc32)cc1` the “activity change, negative = inhibition” value was inactive: 3.72%. For `O=C(Nc1ccccc1F)Nc1ccccc1N1CCCCC1`, the “activity change, negative = inhibition” value was inactive: -4.18%. For `O=C(CN1C(=O)c2ccccc2S1(=O)=O)c1ccc2c(c1)OCCO2`, the “activity change, negative = inhibition” value was inactive: -0.927%. In the case of `CCCCCn1nc(C(=O)N(CC(C)C)c2c(N)n(CCCC)c(=O)[nH]c2=O)c2ccccc2c1=O`, the Potency is reported as inconclusive [inhibitor, full curve]. `Cc1ccc(-c2nnc(C)c(N3CCOCC3)n2)cc1` was tested, and the Potency was inconclusive [inhibitor, full curve]. `CCOC(=O)N1CCN(C(=O)c2cccn3c(=O)c4sccc4nc23)CC1` was tested, and the “activity change, negative = inhibition” value was inactive: 1.68%. `O=C(NCCN1CCCCC1)c1cc(OCC(F)(F)F)ccc1OCC(F)(F)F` was tested, and the “activity change, negative = inhibition” value was inactive: 1.52%. For `COc1ccc(NC(=O)CSc2nc3c([nH]c4ccccc43)c(=O)n2-c2ccccc2)c(OC)c1`, the “activity change, negative = inhibition” value was inactive: 5.84%. For `O=C(Nc1ccc(Br)cc1)c1cnc[nH]1`, the Potency was inconclusive [inhibitor, single point]. In the case of `O=S(=O)(Nc1ccc2nc(C(F)(F)F)[nH]c2c1)c1ccccc1`, the “activity change, negative = inhibition” value is reported as inactive: -5.74%. For `COc1ccc(-n2nc(C(=O)NCC(=O)N3CC(C)CC(C)C3)c3ccccc3c2=O)cc1OC` (stereo unspecified), the “activity change, negative = inhibition” value was inactive: -5.69%. For `CCN1/C(=C/C=C/C=C/c2sc3ccccc3[n+]2CC)Sc2ccccc21`, the Potency was inconclusive [inhibitor, partial curve, poor fit]. In the case of `Cc1ccc(-c2ccc(=O)n(CC(=O)NCCN(CC(C)C)CC(C)C)n2)cc1`, the “activity change, negative = inhibition” value is reported as inactive: -1.41%. For `O=C(COC(=O)c1cccc(S(=O)(=O)N2CCCCC2)c1)NCc1ccccc1`, the Potency was inconclusive [inhibitor, partial curve].
